We go through 88 compounds from article PMC4336329 (PLoS ONE, 2015).

Structures are written as SMILES. The whole screen tested about 310,000 compounds, of which about 2,200 (0.71%) showed an effect of 50% or more. Effects have a minus sign here. The list shows a part of the results.

The target of this assay is human ether-à-go-go-related gene (hERG) potassium channel (human, UniProt Q12809). Briefly: primary screen, population patch clamp on CHO cells stably expressing hERG.
Chain of human ether-à-go-go-related gene (hERG) potassium channel (Q12809 whole entry, looked up): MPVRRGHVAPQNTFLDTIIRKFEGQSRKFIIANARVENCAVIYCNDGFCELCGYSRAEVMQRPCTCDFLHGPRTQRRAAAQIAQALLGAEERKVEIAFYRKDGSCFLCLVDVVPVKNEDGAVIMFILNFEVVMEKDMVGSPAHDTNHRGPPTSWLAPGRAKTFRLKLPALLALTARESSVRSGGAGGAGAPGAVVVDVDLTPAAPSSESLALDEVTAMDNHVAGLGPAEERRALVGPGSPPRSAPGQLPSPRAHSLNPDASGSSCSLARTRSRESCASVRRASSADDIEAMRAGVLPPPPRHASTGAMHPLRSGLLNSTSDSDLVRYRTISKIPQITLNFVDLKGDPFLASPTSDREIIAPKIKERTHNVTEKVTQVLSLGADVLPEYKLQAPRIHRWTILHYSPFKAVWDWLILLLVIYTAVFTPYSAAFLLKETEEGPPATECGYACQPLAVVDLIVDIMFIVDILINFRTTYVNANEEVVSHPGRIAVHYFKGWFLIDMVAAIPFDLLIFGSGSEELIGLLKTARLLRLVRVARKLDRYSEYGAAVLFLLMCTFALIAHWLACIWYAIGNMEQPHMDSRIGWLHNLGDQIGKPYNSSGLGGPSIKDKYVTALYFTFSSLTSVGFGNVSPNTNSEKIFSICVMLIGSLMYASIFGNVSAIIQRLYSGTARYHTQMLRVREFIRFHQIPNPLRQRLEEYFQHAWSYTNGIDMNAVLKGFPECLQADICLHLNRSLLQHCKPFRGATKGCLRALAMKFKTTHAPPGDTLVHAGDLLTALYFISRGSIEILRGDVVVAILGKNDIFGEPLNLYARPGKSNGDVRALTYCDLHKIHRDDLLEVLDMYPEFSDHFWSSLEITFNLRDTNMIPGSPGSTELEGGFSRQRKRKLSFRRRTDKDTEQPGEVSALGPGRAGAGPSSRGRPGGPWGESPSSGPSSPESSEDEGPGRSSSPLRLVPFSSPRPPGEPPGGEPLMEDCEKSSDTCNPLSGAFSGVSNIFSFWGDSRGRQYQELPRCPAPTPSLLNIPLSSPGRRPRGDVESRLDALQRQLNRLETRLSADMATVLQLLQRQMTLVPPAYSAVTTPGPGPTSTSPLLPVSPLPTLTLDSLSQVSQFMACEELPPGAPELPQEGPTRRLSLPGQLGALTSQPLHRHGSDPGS
On to `C=CCc1ccc(OCCn2cccc2C=O)c(OC)c1`, for which the “hERG current change (%, negative = inhibition) at 1uM” value is reported as -8.16%.
For `COCCCNC(=O)c1ccc(N(C)S(C)(=O)=O)cc1`, the “hERG current change (%, negative = inhibition) at 1uM” value was found to be 10.9%.
Take `CCOC(=O)C1CN(S(=O)(=O)c2ccc(C)cc2)c2cc(S(=O)(=O)CC)ccc2O1` (stereo not shown): the “hERG current change (%, negative = inhibition) at 1uM” value is -1.2%.
With `Cc1cc(C)nc(OC(C(=O)O)C(OCCc2ccccc2)(c2ccccc2)c2ccccc2)n1` (stereo not shown) the figure was 12.1%; with `COc1ccc(Br)cc1C1Nc2cccc3cccc(c23)N1`, 15.4%.
With `CCc1cccc(NC(=O)C2CCCN(c3ncnc4c3nc3n4CCCCC3)C2)c1` (stereo not shown) the figure was -7.04%; with `Cc1cc(N2CCN(Cc3nc(-c4ccc(Cl)cc4)oc3C)CC2)cc(C)n1`, -57.8%.
As for `COc1ccccc1NC(=S)NNC(=S)Nc1ccc(OC(F)F)cc1`, the “hERG current change (%, negative = inhibition) at 1uM” value was 14.8%.
On to `O=C(COc1cccc(C(F)(F)F)c1)N1CCN(c2ccccc2O)CC1`, for which the “hERG current change (%, negative = inhibition) at 1uM” value was found to be 5.44%.
In the case of `CSc1ccc(S(=O)(=O)N(CC(=O)NN=C2CCN(C)CC2)c2ccc(C)cc2)cc1` it was 4.73%.
For the compound `CC1=C(C(=O)Nc2ccccc2)C(c2ccncc2)n2nnnc2N1` (stereo not shown), the “hERG current change (%, negative = inhibition) at 1uM” value is on record as -2.54%.
With `Cc1c(C)c2c(OCC(=O)N3CCC(C(=O)NCC(C)C)CC3)cc3c(c2oc1=O)CCC(C)(C)O3` the figure was -8.99%; with `CCOC(=O)N1CCN(C(=O)C2CCN(C(=O)c3cc4sccc4n3CC)CC2)CC1`, -0.112%.
In the case of `Cc1cc(C(=O)Cn2ncc(Cl)c(Cl)c2=O)c(C)n1CC(F)(F)F` it was 27.4%.
With `COc1ccc(/C=N/NC(=O)C(=O)NCC2CCCO2)cc1` (stereo not shown), the “hERG current change (%, negative = inhibition) at 1uM” value is on record as -25.3%.
As for `Nc1c(-c2ccccc2)c(CN2CCOCC2)nn1-c1ccccc1`, the “hERG current change (%, negative = inhibition) at 1uM” value is on record as 7.4%.
In the case of `Cc1ccc(NS(=O)(=O)c2cc3[nH]c(=O)c(=O)[nH]c3cc2C)c(C)c1` it was 5.75%; in that of `COc1ccc(C(CNC(=O)Cc2ccc(Cl)c(Cl)c2)N(C)C)cc1` (stereo not shown), -9.37%.
With `Cc1nn(-c2ccccc2)c2c1C(c1c(C)[nH]c(C#N)c1C)C(C#N)=C(N)O2` (stereo not shown), the “hERG current change (%, negative = inhibition) at 1uM” value was determined as 9.09%.
With `CCOC(=O)N1CCC(c2cc(=O)n3[nH]c(-c4ccccc4)cc3n2)CC1` the figure was 13.6%; with `S=C(NCCCN1CCOCC1)NC1CC1`, 15.4%.
Consider `COc1ccc2c(c1)CCc1c(C(=O)NC3CCCCC3)noc1-2`, for which the “hERG current change (%, negative = inhibition) at 1uM” value stood at 18.1%.
For the compound `CCOC(=O)c1cc(-c2ccccc2)sc1NC(=O)COC(=O)c1cccc(S(N)(=O)=O)c1`, the “hERG current change (%, negative = inhibition) at 1uM” value is given as 14%.
Consider `N#CN1CCC(NS(=O)(=O)c2ccc(C(F)(F)F)cc2)C1` (stereo not shown), for which the “hERG current change (%, negative = inhibition) at 1uM” value was 7.36%.
In the case of `CC(C)NS(=O)(=O)c1ccc(OCC(=O)Nc2ccc3c(c2)OCO3)c(Cl)c1` it was 6.26%; in that of `Cc1cccc(-n2c(C)n[nH]c2=S)c1`, 1.26%.
With `CC(CCc1ccccc1)NC(=O)COC(=O)c1ccc(F)cc1.CN(C)C=O` (stereo not shown) the figure was 18.1%.
With `CCN(CC)c1ccc(C=Nc2ccc(C)cc2)c(O)c1` the figure was 11.2%; with `CCc1cccc2c(C(=O)COC(=O)c3cnc(C)cn3)c[nH]c12`, 6.76%; with `CCOC(=O)CC(N)c1ccc2c(c1)OCO2.Cl` (stereo not shown), 13.1%.
As for `CCOc1ccccc1C1CC(=O)NC(SCC)=C1C#N` (stereo not shown), the “hERG current change (%, negative = inhibition) at 1uM” value is reported as 13.1%.
Regarding `COc1ccc(NC(=O)c2sccc2C)cn1`, the “hERG current change (%, negative = inhibition) at 1uM” value is recorded as 2.92%.
With `COc1ccc(NS(=O)(=O)c2c(F)cc(F)c(Cl)c2F)cc1S(=O)(=O)N1CCCCC1` the figure was 0.639%.
With `CCOC(=O)/C(C#N)=N\Nc1ccc(S(=O)(=O)Nc2nc(C)cc(C)n2)cc1` the figure was 10%; with `O=c1[nH]c(/C=C\c2ccc(O)cc2)nc(O)c1[N+](=O)[O-]`, 12.3%; with `CC(O)C(NS(=O)(=O)c1ccc(Cl)cc1)C(=O)OCC(=O)Nc1cccnc1Cl` (stereo not shown), 12.1%.
In the case of `O=c1[nH]ncc2c3ccccc3n(Cc3cccc(Cl)c3)c12` it was 7.24%.
`Nc1nc(C(F)(F)F)cc(=O)[nH]1`: the “hERG current change (%, negative = inhibition) at 1uM” value is reported as 12.1%.
Regarding `CCOC(=O)c1c(N)n(CCN2CCOCC2)c2nc3ccccc3nc12`, the “hERG current change (%, negative = inhibition) at 1uM” value was -16.6%.
In the case of `CCOc1cc(N2CCOCC2)c(OCC)cc1NCC(=O)N1CCN(Cc2ccccc2)CC1.Cl`, the “hERG current change (%, negative = inhibition) at 1uM” value was 9.92%.
For the compound `NS(=O)(=O)c1ccc(CCNC(=O)C2CCN(S(=O)(=O)c3ccc(Br)s3)CC2)cc1`, the “hERG current change (%, negative = inhibition) at 1uM” value is 18.7%.
`Cc1ccc(C(=O)N2CCN(Cc3ccc4c(c3)OCO4)CC2)cc1[N+](=O)[O-]`: the “hERG current change (%, negative = inhibition) at 1uM” value is reported as -2.15%.
As for `O=C(O)C1CC(O)CN1S(=O)(=O)c1ccc2ccccc2c1` (stereo not shown), the “hERG current change (%, negative = inhibition) at 1uM” value came out at 6.2%.
In the case of `COc1ccc(Nc2nc(N3CCOCC3)nc(N3CCOCC3)n2)cc1` it was 15.6%; in that of `O=C(O)c1ccccc1C(=O)c1ccc(Sc2ccc(Cl)cc2)c([N+](=O)[O-])c1`, 7.46%.
`CC1(C)CC(=O)C=C(NC2CCCCCCC2)C1`: the “hERG current change (%, negative = inhibition) at 1uM” value is recorded as -2.54%.
As for `CCCCNC(=O)NC(C(=O)OC)C12CC3CC(CC(C3)C1)C2` (stereo not shown), the “hERG current change (%, negative = inhibition) at 1uM” value is reported as -3.05%.
In the case of `N#C/C(=C/c1ccncc1)c1nc2ccccc2c(=O)[nH]1` it was 13%; in that of `CCN(CC)S(=O)(=O)c1ccc(N2CCc3ccccc3C2)nc1`, 16%.
With `Cc1ccc2sc(NNC(=O)c3ccc4c(c3)OCCO4)nc2c1C`, the “hERG current change (%, negative = inhibition) at 1uM” value was 8.2%.
For `COC(=O)c1c(NC(=O)COC(=O)c2ccc(NC(=O)CC#N)cc2)sc2c1CCCCC2`, the “hERG current change (%, negative = inhibition) at 1uM” value is 12%.
With `COc1cccc(N2C(=O)N(c3ccccc3)C3CS(=O)(=O)CC32)c1` (stereo not shown) the figure was 3.15%; with `O=C(OCC(=O)c1ccc(Cl)cc1Cl)c1cnccn1`, 8.89%; with `Cc1ccc(S(=O)(=O)NCCCC(=O)O)cc1`, 12.3%.
In the case of `Cc1cc(C)nc(SCC(=O)N/N=C/c2cccs2)n1` it was 7.39%; in that of `CCCN(CCC)S(=O)(=O)c1ccc(C(=O)Nc2c(C)n(C)n(-c3ccccc3)c2=O)cc1`, 2.98%; in that of `C[C@H](NC(=O)c1ccc(Cl)cc1)C(=O)NNC(=O)c1cccs1`, 27.7%.
In the case of `OCCN1CCN(Cc2cc(Cl)c3cccnc3c2O)CC1` it was 18.5%; in that of `COc1ccccc1C(=O)Nc1nc(-c2ccc3c(c2)OCCO3)cs1`, 10.9%; in that of `COc1cc(NC(=O)C2CCCN(S(=O)(=O)c3cnc[nH]3)C2)cc(OC)c1` (stereo not shown), 8.54%.
For the compound `CC(C)O.Cc1ccc(-c2cc(C(=O)O)n(-c3ccc(S(N)(=O)=O)cc3)n2)cc1`, the “hERG current change (%, negative = inhibition) at 1uM” value is 11.8%.
In the case of `COc1ccc(CCNCc2c(-c3ccccc3)n(C)c3ccccc23)cc1.O=C(O)C(=O)O`, the “hERG current change (%, negative = inhibition) at 1uM” value worked out at 6.8%.
With `COc1ccc(Cl)cc1S(=O)(=O)NCc1ccncc1` the figure was 15.2%; with `O=C(Nc1ccccc1F)NC1CCCCCCC1`, 1.1%; with `OCC(CO)(CO)N=Cc1c(O)ccc2ccccc12`, 1.91%.
With `CCOC(=O)c1cnc2ccc(C(=O)OC)cc2c1NCCCN1CCOCC1` the figure was -25.5%; with `O=C(CN1C(=O)NC2(CCc3ccccc32)C1=O)c1ccc(Br)cc1` (stereo not shown), 9.51%; with `O=C(CN1C(=O)/C(=C2\SC(=S)N(C3CCS(=O)(=O)C3)C2=O)c2ccccc21)Nc1ccccc1` (stereo not shown), 3.09%.
As to `CCOC(=O)c1ccc(NC(=O)Cn2ncc(Cl)c(Cl)c2=O)cc1`, the “hERG current change (%, negative = inhibition) at 1uM” value was found to be 2.74%.
With `Cc1cc(C)n(C(=O)c2ccc([N+](=O)[O-])cc2N)n1` the figure was 23.1%.
On to `Cc1ccccc1N1CC(C(=O)Nc2ccc(S(=O)(=O)N3CCCCC3)cc2)CC1=O` (stereo not shown), for which the “hERG current change (%, negative = inhibition) at 1uM” value is 15.9%.
In the case of `CCn1c(SCC(=O)NCC2CCCO2)nnc1-c1ccccc1` (stereo not shown) it was 4.6%; in that of `Cc1cccc(C)c1NC(=O)CN(C)C(C)C(=O)Nc1ccccc1-c1ccccc1` (stereo not shown), 11.9%.
For the compound `COc1cccc2c1CCc1c-2nc2ccccc2c1C(=O)O`, the “hERG current change (%, negative = inhibition) at 1uM” value turned out to be 6.53%.
With `CC(NC(=O)COC(=O)/C=C/c1ccc2c(c1)OCO2)c1ccccc1` (stereo not shown) the figure was -6.44%.
In the case of `CN1CCN(C(=O)c2cc3sccc3n2CC(=O)c2ccccc2)CC1` it was -2.93%; in that of `Cc1cc(C(=O)NNC(=O)C2CCCC2)c(C)o1`, 15.7%; in that of `CC(=O)Nc1ccc(S(=O)(=O)NCc2cn3ccsc3n2)cc1`, 1.26%.
On to `CCCCCCc1c(C)c2ccc(OCC(=O)N[C@@H](Cc3ccccc3)C(=O)O)cc2oc1=O`, for which the “hERG current change (%, negative = inhibition) at 1uM” value turned out to be 14.3%.
With `O=C(CSCc1c(Cl)cccc1Cl)Nc1ccccc1C(=O)N1CCOCC1` the figure was 2.48%.
As to `CCCc1cc(=O)[nH]c(SCC(=O)NC(=O)OCC)n1`, the “hERG current change (%, negative = inhibition) at 1uM” value is 16.9%.
With `Cc1ccc(NC(=O)c2ccc(OC(F)F)cc2)cc1S(=O)(=O)N(C)C` the figure was 9.55%; with `CC(C)c1ccc(N(C(=O)c2ccco2)C(C(=O)NC2CCCC2)c2cccnc2)cc1` (stereo not shown), 3.2%; with `CCOC(=O)c1c(NC(=O)CSc2nnc3c(Cl)cc(Cl)cn23)sc2c1CCC2`, -0.828%.
As for `O=C1C=C(c2ccc(CO)cc2)C[C@@H](c2ccc3c(c2)OCO3)C1`, the “hERG current change (%, negative = inhibition) at 1uM” value was determined as 6.43%.
`COc1ccc(CN2C(=O)c3ccccc3C2=O)cc1C(=O)Nc1ccc(C)cc1C`: the “hERG current change (%, negative = inhibition) at 1uM” value was 4.18%.
`Cc1cc(C(=O)NC(C)CCC(C)C)c2ccccc2n1` (stereo not shown): the “hERG current change (%, negative = inhibition) at 1uM” value worked out at 25.5%.
In the case of `O=C(Nc1ccc(OC(F)(F)F)cc1)NC1CCC(Oc2ccc(C(=O)O)cc2)CC1` (stereo not shown) it was 11.4%.
